{"source": "PubChem BioAssay AID1479", "about": "(National Center for Advancing Translational Sciences (NCATS), 2009)", "note": "Values joined by “and” are separate entries in the source; they are usually repeats but may differ in a detail not shown here. Equal values may be shown once. Among all 280,000 compounds or so, about 820 (0.29%) were called active. Inconclusive results, whose numbers are uncertain, are shown with a selection of clear calls. The call rests on the fitted dose curve; in most records, active means well fitted curve in either direction with a large enough effect; inconclusive means small, poorly fitted or top-dose-only effect; inactive means flat fitted curve, though single readings scatter. A potency beside an inconclusive call is a rough fit, not a confirmed value. Some compounds were tested as several samples or in several runs, with calls that do not always agree. On the % scale 0 is the no-effect control and ±100 the full control effect; potency means the concentration at half of the fitted maximal effect; tags describe the fitted curve by direction and shape or compound fluorescence and quenching."}
{"assay": "Total Fluorescence Counterscreen for Inhibitors of the Interaction of Thyroid Hormone Receptor and Steroid Receptor Coregulator 2", "conditions": "TRb/SRC2 Texas Red total fluorescence interference; series mostly up to 106 µM; fluorescence change, negative = quenching: at the top concentration", "outline": "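Human TRβ ligand-binding domain (0.6 uM) and Texas Red SRC2 peptide (20 nM) in Tris buffer with 1 uM T3 and 5% DMSO were incubated with pinned compound for 5 hr at ambient temperature. Total fluorescence was computed as S + 2P (555/632 nm).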"}
{"smiles": "CCc1cc(=O)oc2c3c(c(Cl)cc12)OCN(Cc1cccc(OC)c1)C3", "Potency": "inconclusive: 0.0501 µM [falling, full curve, poor fit]"}
{"smiles": "O=C(NCc1cccnc1)/C(=C/c1ccc(-c2cccc(C(F)(F)F)c2)o1)NC(=O)c1ccccc1", "fluorescence change, negative = quenching": "inactive: -0.0524%"}
{"smiles": "COc1ccc(CNC(=O)CCn2cccn2)cc1", "fluorescence change, negative = quenching": "inactive: 1.19%"}
{"smiles": "Cc1cccc(C)c1OCC(=O)NCC1(N(C)C)CCCCC1", "Potency": "inconclusive: 31.6 µM [quencher, partial curve]"}
{"smiles": "O=S(=O)(Nc1c(S(=O)(=O)c2ccccc2)c2nc3ccccc3nc2n1C1CCCCC1)c1ccccc1", "fluorescence change, negative = quenching": "inactive: -0.502%"}
{"smiles": "O=C(NCc1ccc(F)cc1)c1cc2n(n1)CCCN(Cc1ccc(F)cc1)C2=O", "Potency": "inconclusive: 15.8 µM [quencher, full curve]"}
{"smiles": "Cc1cc(Cl)ccc1NC(=O)C(=O)NCc1ccco1", "Potency": "inconclusive: 0.891 µM [falling, full curve, poor fit]"}
{"smiles": "O=C1OC(c2ccc(Cl)cc2)/C(=C(/O)c2ccccc2)C1=O", "note": "(centres undefined)", "fluorescence change, negative = quenching": "inactive: -1.7%"}
{"smiles": "CCc1nn(CC(=O)NCCc2ccc(OC)cc2OC)c(=O)c2cc3c(OC)cccc3n12", "Potency": "inconclusive: 15.8 µM [falling, full curve, poor fit]"}
{"smiles": "CCc1cccc(NC(=O)CSC2=Nc3ccccc3N=C(c3ccc(F)cc3)C2)c1", "Potency": "inconclusive: 0.0003 µM"}
{"smiles": "CC(=O)Nc1ccc(N=Nc2cc(C)ccc2O)cc1", "Potency": "inconclusive: 79.4 µM [quencher, partial curve]"}
{"smiles": "CCOc1ccc(C(=O)c2cn(CC(=O)Nc3ccc(Cl)cc3)c3cc4c(cc3c2=O)OCCO4)cc1", "fluorescence change, negative = quenching": "inactive: -0.261%"}
{"smiles": "CCOc1cccc2c1OC(c1cc(OC)c(OC)c(OC)c1)N1N=C(c3ccc(C)o3)CC21", "note": "(centres undefined)", "Potency": "inconclusive: 31.6 µM [fluorescent, partial curve]"}
{"smiles": "COc1ccc(OC)c(NC(=O)/C=C/c2ccc(C)o2)c1", "Potency": "inconclusive: 70.8 µM [falling, partial curve, poor fit]"}
{"smiles": "COc1ccc(OC)c(CCNc2nc3ccccc3c3nc(-c4cccnc4)nn23)c1", "Potency": "inconclusive: 20 µM [falling, full curve, poor fit]"}
{"smiles": "COC(=O)c1cc2oc3ccccc3c2n1Cc1nc(-c2ccccc2C)oc1C", "Potency": "active: 20 µM [quencher]"}
{"smiles": "CCn1c(=O)cc(OCC(=O)Nc2cc(Cl)c(OC)cc2OC)c2ccccc21", "fluorescence change, negative = quenching": "inactive: -3.2%"}
{"smiles": "Cc1ccc(CCNC(=O)C2CCN(Cc3nc(-c4ccccc4C)oc3C)CC2)cc1", "Potency": "inconclusive: 0.562 µM [falling, full curve, poor fit]"}
{"smiles": "CC(=O)N1CCc2cc(S(=O)(=O)CCC(=O)NCc3ccc(Cl)cc3)ccc21", "Potency": "inconclusive: 25.1 µM [falling, full curve, poor fit]"}
{"smiles": "Cc1ccc(C)c(-c2[nH]c3c(c2-c2c(-n4cccc4)n(C)c(=O)[nH]c2=O)c(=O)[nH]c(=O)n3C)c1", "Potency": "inconclusive: 89.1 µM [falling, partial curve, poor fit]"}
{"smiles": "CCCCOc1cccc(C(=O)N(Cc2sccc2C)C2CCS(=O)(=O)C2)c1", "note": "(centres undefined)", "Potency": "inconclusive: 100 µM [falling, partial curve, poor fit]"}
{"smiles": "CC1(COc2ccc(C[C@H]3SC(=O)NC3=O)cc2)CCCCC1", "fluorescence change, negative = quenching": "inactive: -1.28%"}
{"smiles": "COc1cc(C)c2c(c1C=O)Oc1c(c(C)c(O)c3c1C(O)OC3=O)OC2=O", "note": "(centres undefined)", "Potency": "inactive and inconclusive: 39.8 µM [quencher, partial curve]"}
{"smiles": "Cc1ccc(C)c2[nH]c(=O)c(C(c3nnnn3CCc3ccccc3)N3CCOCC3)cc12", "note": "(centres undefined)", "fluorescence change, negative = quenching": "inactive: 0.984%"}
{"smiles": "COc1ccccc1OCC(=O)NCc1nc(-c2ccc(Cl)cc2)no1", "Potency": "inconclusive: 56.2 µM [falling, partial curve, poor fit]"}
{"smiles": "O=C(NCCc1ccc2c(c1)OCCO2)c1ccc(F)cc1", "Potency": "inconclusive: 0.0708 µM [falling, full curve, poor fit]"}
{"smiles": "CCN(CCCNC(=O)CSc1cc(=O)n(CC)c2ccccc12)c1cccc(C)c1", "Potency": "inconclusive: 100 µM [falling, partial curve, poor fit]"}
{"smiles": "Oc1c(Cl)cc(Cl)c(Cl)c1Cc1c(O)c(Cl)cc(Cl)c1Cl", "Potency": "active: 44.7 µM [quencher]"}
{"smiles": "Cc1c(N(C)C)c(=O)n(-c2ccccc2)n1C", "Potency": "inconclusive: 63.1 µM [quencher, partial curve]"}
{"smiles": "CC(=O)c1ccc(NC(=O)Cn2cc(S(=O)(=O)Cc3ccccc3Cl)c3ccccc32)cc1", "Potency": "inconclusive: 20 µM [quencher, full curve]"}
{"smiles": "CCOC(=O)c1c(NC(=O)C2COc3ccccc3O2)sc2c1CC(C)(C)NC2(C)C", "note": "(centres undefined)", "Potency": "inconclusive: 0.0063 µM [falling, full curve, poor fit]"}
{"smiles": "CC(C(=O)Nc1ccc2c(c1)OCCO2)N(C)Cc1c(F)cccc1Cl", "note": "(centres undefined)", "fluorescence change, negative = quenching": "inactive: -1.64%"}
{"smiles": "Cc1ccc2c(c1)N(C(=O)Nc1cccc(C)c1C)CCO2", "Potency": "inconclusive: 100 µM [falling, partial curve, poor fit]"}
{"smiles": "CCOc1ccc(CNS(=O)(=O)c2ccc(-c3coc(C)n3)cc2)cc1", "Potency": "active: 0.0071 µM [quencher]"}
{"smiles": "Brc1ccc(-c2ccc(/C=N/Nc3nc4ccccc4[nH]3)o2)cc1", "Potency": "inconclusive: 0.0794 µM [falling, full curve, poor fit]"}
{"smiles": "Oc1ccc(/C=C/c2cc(O)cc(O)c2)cc1", "Potency": "inconclusive: 112 µM [falling, single point]"}
{"smiles": "COC(=O)C1=C(C)N(Cc2ccccc2)C2=C(C(C)=O)C[C@@](O)(C(=O)OC)C(=O)N2C1c1ccccc1", "note": "(some centres undefined)", "Potency": "inconclusive: 0.0891 µM [falling, full curve, poor fit]"}
{"smiles": "C/C(=N\\Nc1ccc(C#N)cc1[N+](=O)[O-])c1ccc(O)cc1", "fluorescence change, negative = quenching": "inactive: -8.64%"}
{"smiles": "NS(=O)(=O)c1ccc(NC(=S)NC(=O)c2ccc(-c3ccccc3)cc2)cc1", "Potency": "active: 0.316 µM [quencher]"}
{"smiles": "CC(C)(C)c1ccc(/C=N/NC(=S)Nc2cccnc2)cc1", "fluorescence change, negative = quenching": "inactive: -0.0317%"}
{"smiles": "Cc1[nH]c2ccccc2c1/C=N/NC(=O)c1cc(-c2cccs2)[nH]n1", "Potency": "inconclusive: 31.6 µM [quencher, partial curve]"}
{"smiles": "Cc1cc(NC(=O)Nc2csc3c2CCCC3)ccc1Br", "Potency": "inconclusive: 12.6 µM [quencher, full curve]"}
{"smiles": "Cc1noc(/C=C/Nc2ccc(F)cc2F)c1[N+](=O)[O-]", "fluorescence change, negative = quenching": "inactive: -0.788%"}
{"smiles": "CCc1ccc(OCC(=O)NCc2nc(-c3cccc(C)c3)no2)c(Br)c1", "Potency": "inconclusive: 0.0009 µM [falling, full curve, poor fit]"}
{"smiles": "Cc1ccc(-n2c(SCC(=O)Nc3cccc(Cl)c3)nc3n[nH]c(C)c3c2=N)cc1", "Potency": "inconclusive: 200 µM [falling, partial curve, poor fit]"}
{"smiles": "O=c1cc(-c2ccc(O)cc2)oc2ccc(O)cc12", "Potency": "inconclusive: 112 µM [falling, partial curve, poor fit]"}
{"smiles": "COCCN(CCOC)C(=O)c1cc2c(=O)n3ccccc3nc2n1C", "Potency": "inconclusive: 100 µM [quencher, partial curve]"}
{"smiles": "CCOC(=O)C(Cc1c[nH]c2ccccc12)NC(=O)COc1ccc(Cl)cc1", "note": "(centres undefined)", "Potency": "inconclusive: 0.0013 µM"}
{"smiles": "COc1ccc(OC)c(NC(=O)CC2SC(=Nc3ccc(F)cc3)N(CCC3=CCCCC3)C2=O)c1", "note": "(centres undefined)", "Potency": "inconclusive: 0.0018 µM [quencher, full curve]"}
{"smiles": "O=C1c2sc3nc4n(c(=O)c3c2CCC1Br)CCCCC4", "note": "(centres undefined)", "fluorescence change, negative = quenching": "inactive: -2.42%"}
{"smiles": "Nn1cnc2c([nH]c3ccccc32)c1=O", "Potency": "active: 1120 µM [quencher]"}
{"smiles": "CC1(C)CC(=O)C2=C(C1)Nc1nc(SCCN3CCOCC3)[nH]c(=O)c1C2c1cccs1", "note": "(centres undefined)", "fluorescence change, negative = quenching": "inactive: -0.782%"}
{"smiles": "COc1ccc(N2CCN(C(=O)CCn3cnc4onc(-c5ccc(F)cc5)c4c3=O)CC2)cc1", "Potency": "inconclusive: 100 µM [falling, partial curve, poor fit]"}
{"smiles": "CSCC[C@H](NC(=O)[C@H](CC(C)C)NC(=O)CNC(=O)[C@H](Cc1ccc(O)cc1)NC(=O)[C@H](Cc1ccccc1)NC(=O)[C@H](CCC(N)=O)NC(=O)[C@H](CCC(N)=O)NC(=O)[C@@H]1CCCN1C(=O)[C@H](CCCCN)NC(=O)[C@@H]1CCCN1C(=O)[C@@H](N)CCCN=C(N)N)C(N)=O", "Potency": "inconclusive: 0.0005 µM [falling, full curve, poor fit]"}
{"smiles": "CC(=O)c1c(O)cc(O)cc1CC(=O)O", "fluorescence change, negative = quenching": "inactive: -0.346%"}
{"smiles": "CCc1ccc(-c2cc3c(N4CCN(c5ccccc5)CC4)nccn3n2)cc1", "Potency": "inconclusive: 5.62 µM [quencher, full curve]"}
{"smiles": "CCOC(=O)Cc1csc(-n2sc3ccccc3c2=O)n1", "fluorescence change, negative = quenching": "inactive: -6.56%"}
{"smiles": "CCc1ccc(S(=O)(=O)c2nnn3c2nc(N2CCCC(C)C2)c2cc(Cl)ccc23)cc1", "note": "(centres undefined)", "Potency": "inconclusive: 17.8 µM [falling, full curve, poor fit]"}
{"smiles": "Cc1ccc(S(=O)(=O)COCCN2CCN(S(=O)(=O)c3ccc(C)cc3)CCC2=O)cc1", "Potency": "inconclusive: 0.0007 µM [quencher, full curve]"}
{"smiles": "CCOc1ccc(CCNC(=O)Cn2nnc(-c3ccc(OC)c(OC)c3)n2)cc1OCC", "Potency": "inconclusive: 14.1 µM [quencher, full curve]"}
{"smiles": "CCOc1cc(CNCCSc2nnnn2-c2ccccc2)cc(Cl)c1OC", "Potency": "inconclusive: 100 µM [falling, partial curve, poor fit]"}
{"smiles": "CC(C)Oc1ccc(CNS(=O)(=O)c2cnc(N)nc2)cc1", "Potency": "inconclusive: 0.0009 µM [falling, full curve, poor fit]"}
{"smiles": "COc1ccccc1/C=N/NC(=O)C(=O)Nc1ccccc1OC(F)(F)C(F)F", "Potency": "inconclusive: 0.0001 µM"}
{"smiles": "COc1ccc(-c2nc(-c3ccccc3)c(-c3ccccc3)[nH]2)cc1Br", "Potency": "inconclusive: 1 µM [falling, full curve, poor fit]"}
